Data reported in publication PMC12136788.
Some of the results follow.

T1: UNK ZnF1-3 (human, UniProt Q9C0B0 31-174)
T1 sequence: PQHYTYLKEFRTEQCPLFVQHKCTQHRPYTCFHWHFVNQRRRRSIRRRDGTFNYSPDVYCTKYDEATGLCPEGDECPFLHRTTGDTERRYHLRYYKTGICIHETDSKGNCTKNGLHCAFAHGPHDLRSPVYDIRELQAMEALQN

B1: 171625122_171625242_3334_3pUTR_ENSMUSG00000026678_ENSMUST00000027997|mouse|control|control (ssRNA)
RNA: GGGAGUUCUACAGUCCGACGAUCAGAAAGCUUUUUCUUUGGUUUUCAAUUGCUUUCAUUAGCCACAGGACUUAUUUAAUGGGAAAAGUGUUUAACACCAGAAGUAGUUUUGAAAUUGCUGGCUUUGUGCUGAGAAUGUUCAAUCAACAGAGGAUUGAGCAUCA
B2: 18684143_18684521_187_CDS_ENSG00000221983_ENST00000430157|human|control|control (ssRNA)
RNA: GGGAGUUCUACAGUCCGACGAUCCUCCAGCUGUUUGCCGGCAAAUAUCAGACGCUGCUGGUCAGGUGGGAUACCCUCCUUGUCUUGAAUUUUGGCUUUGACAUUCUCAAUGGUGUCACUGGGCUCGACCUCAAGGGUGAUGGUCAACAGAGGAUUGAGCAUCA
B3: 156514000_156517885_2354_CDS_ENSG00000183856_ENST00000361170|human|control|control (ssRNA)
RNA: GGGAGUUCUACAGUCCGACGAUCGGCCCAGGCCUGGAUCUUGAUUAUGGCAUCCAGGUUUGCUUUAAAAUACUGCAACCACUCCAGGUAAAUCUUCCGCUGCCUAUAACCCCGCCAAUGAGCCUGGAUCUUGAUGACUGCUGGCAACAGAGGAUUGAGCAUCA
B4: chr6:38652254:38652255:-_ENSG00000124767_ENST00000373365|hu_hu|hu_hu_hu_mus_False|48_68 (ssRNA)
RNA: GGGAGUUCUACAGUCCGACGAUCCGAGAACUUCAUAGCAGGGAAGUCAAGCUUCUGCAGGAGGGUCAUUCCAAGAACCCUCGUAUAAAAAUCCAGUGACUUCUUAGGAUCCUUAAUUCUUAGCAUCGUUUGCUGCAGUAGAAACAACAGAGGAUUGAGCAUCA
B5: chr6:114281168:114281169:-_ENSG00000196591_ENST00000368632|hu_hu|hu_hu_hu_mus_True|1_1 (ssRNA)
RNA: GGGAGUUCUACAGUCCGACGAUCUUCCAUUUUUCGGUAUAAACCAUAAUUUAGCAGCAAGUUAUGAGUCAUCCGGAUUCUAUGAGGCUUCAUGGGAUGACCCUGGCCAUAAUAAUAAUUGCCAAUAUCACCAUCAUACUAGAACAACAGAGGAUUGAGCAUCA
B6: chr1:46159212:46159213:+_ENSG00000159596_ENST00000372025|hu_mus|hu_hu_hu_mus_True|58_68 (ssRNA)
RNA: GGGAGUUCUACAGUCCGACGAUCUCUGAUCCCUCCCAAGAAAGCUAGGAAACCGGCUCCAUAAGCCAUCUGAGUAAAAGCUAAUAUGGGGAUAUAAGACUUUGUUAUUACCAUGAGAAGUGGGGGAGCAGUAAAGGGGAUUAACAACAGAGGAUUGAGCAUCA
B7: chr8:104433209:104433210:+_ENSG00000164934_ENST00000297579|hu_hu|FALSE|FALSE (ssRNA)
RNA: GGGAGUUCUACAGUCCGACGAUCAAAGCCUUCAUGUGCUUGUAUUGUACGGAUACAAUUCCGCUGAGUUAGAUUCCAAAUUCUAACCUCUCCAUCACACGCCCCAGAAAGGACAGUAGCCAGCUUCUCUGGAUGCUUUGCCAACAACAGAGGAUUGAGCAUCA
B8: 34754486_34754606_5801_CDS_ENSMUSG00000039967_ENSMUST00000047950|mouse|control|control (ssRNA)
RNA: GGGAGUUCUACAGUCCGACGAUCAUUAGAAUUUCUUGUAAAUGUUUUGGUACAUGAAGGUACUACACAUUUAAAUGGAGCAAAUUUUAAUUGAUUCUUCUUAAUUUCAAGAAUCAUCUCUGGAGUAUACUGAUGGAUUUUACCCAACAGAGGAUUGAGCAUCA
B9: 124533939_124534059_1210_CDS_ENSMUSG00000042763_ENSMUST00000064444|mouse|control|control (ssRNA)
RNA: GGGAGUUCUACAGUCCGACGAUCCAGAUACAGGCGAGUUGGCGUCGUCUUGGGGACAGCUUUCUCAAUCUGUGUGCCCUCGUGCCACUCAUUGAAGGAGGUGAUAGAGACUAUCUCGGGCCUCACAGUCAGGGCUGCCUGCAGCAACAGAGGAUUGAGCAUCA
B10: chr4:33586012:33586013:+_ENSMUSG00000028274_ENSMUST00000108153|mus_mus|motif|central (ssRNA)
RNA: GGGAGUUCUACAGUCCGACGAUCCGAGAUGCUAUUGCACACAGCCAUGGCUGUGUUGUAGGCAUUUGGGAAACUUUUGUCGGUCCUCUGUCUCAUGAAGACCCAGCUAUUGUUCUCAAAUUUGCAUUCUAUAAUUUUGUUGUCCAACAGAGGAUUGAGCAUCA
B11: chr8:97196980:97196981:+_ENSMUSG00000031776_ENSMUST00000034228|mus_mus|FALSE|FALSE (ssRNA)
RNA: GGGAGUUCUACAGUCCGACGAUCGCCUGCUGGUCUGGUGAACUCAUGUCAAUCACACCGGUUGUGCGAAGGUGGGACCUAGUGCCGCAGGUUGUUCUGGGAAGCUGGCGUAGAAGAUGACUUACACAGAGAAGUCACAACCAACAACAGAGGAUUGAGCAUCA
B12: 19967392_19969057_911_3pUTR_ENSMUSG00000002428_ENSMUST00000002502|mouse|control|control (ssRNA)
RNA: GGGAGUUCUACAGUCCGACGAUCUCCCAGAAUGGUGGUAGUUCUUUACUGUUCUCUCGUGCGAUCAUCCAAGCUAGAGCUUGUUUUUGGUGUGGAAGCAACGGUGUUUCAAUAGCCUCAGCUGGUUCCAUUUCAACAGUUCUACAACAGAGGAUUGAGCAUCA
B13: chr2:32339754:32339755:+_ENSG00000021574_ENST00000315285|hu_mus|motif|central (ssRNA)
RNA: GGGAGUUCUACAGUCCGACGAUCACCGGAGAGCCCUGCGGAGCCACUUUUCAGGACAGUUUUUGAUCGAGGCAAUGAAUUACGGGCAUGUGUUAAGGGGUCUUUCCUCUUCGGAACUGCUCCACUUUCUGACUGGAGAUGUCCCAACAGAGGAUUGAGCAUCA
B14: chr2:191069868:191069869:-_ENSG00000198130_ENST00000359678|hu_hu|motif|central (ssRNA)
RNA: GGGAGUUCUACAGUCCGACGAUCUAUAAAAACAGGCAGCAGGCUGGAUUUGGCCCACAUGCUGUAGAUUGCCAACCCAUGCGGCAAAAUAUACCUUAAAAGCCUGUCACCUCAAAAUUUCAAAUCACUGCUUCCCAAAGACUUCAACAGAGGAUUGAGCAUCA
B15: 46963340_46963460_1689_3pUTR_ENSMUSG00000025041_ENSMUST00000168536|mouse|control|control (ssRNA)
RNA: GGGAGUUCUACAGUCCGACGAUCUUCAUCAUGGCAGUGUGUGAUCUCCUGGGGGGCCAGCGGGAAGAGGUUGGGGGGCUUGAUCUCACUAAUGGACCUUGUAAGCUGGUGUCGCUUAUAGUCAGUGUCUUUGAAAUCCACUGACAACAGAGGAUUGAGCAUCA
B16: 98288003_98288123_2113_3pUTR_ENSG00000180543_ENST00000322128|human|control|control (ssRNA)
RNA: GGGAGUUCUACAGUCCGACGAUCACAGGCAGUUCUUGAGGUCCUUGUUGACCAGGAAGCCAACUGGGGCUGACAGCAACCCAGACAAAACUUAAUGGCUUGAUAGUGACACGGCAUGGCGCAGAUCUUGAUGAAAGUUCACCACAACAGAGGAUUGAGCAUCA
B17: 139362894_139366476_3788_CDS_ENSG00000148396_ENST00000313050|human|control|control (ssRNA)
RNA: GGGAGUUCUACAGUCCGACGAUCGCUUGCAUAGUAAUCGCUCUGACUGCUCCAUCCACUUUUGGAACUAUAGUAUCCUUCAGGAUAUCCUUGCCUGGGAGGUGGCCGUUCCGAGGAGUGGCUGGCUCGGGAGCUGGGCCGCUCCAACAGAGGAUUGAGCAUCA
B18: chr1:224553637:224553638:+_ENSG00000143771_ENST00000366856|hu_mus|FALSE|FALSE (ssRNA)
RNA: GGGAGUUCUACAGUCCGACGAUCCCUAUAUAUAUUCCACGUGGCGACAGGUAAGUUGAGAAGGAAGAUGAACCAGUGCAGGGAGACAAGCAUCAGCACAGUGACAAUGGUGUGGCCGACCAACUCCGGGAUCACCCACUUGUUCAACAGAGGAUUGAGCAUCA
B19: chr12:3252685:3252686:-_ENSMUSG00000020671_ENSMUST00000021001|perfect_dup|motif|central (ssRNA)
RNA: GGGAGUUCUACAGUCCGACGAUCUAACGUGAGGAACGCCUUUUCGAUGUUUAUAUUUGCUUUUGCACUAGUCUCAAAAAACCGGAUACCAUGCUCCCUUGCAAUCUGUUCUCCUUUUCCUUUAGGUACAACUCUUUUGUCGUCCAACAGAGGAUUGAGCAUCA
B20: chr16:94651144:94651145:+_ENSMUSG00000040785_ENSMUST00000117648|mus_hu|mus_mus_mus_hu_True|8_48 (ssRNA)
RNA: GGGAGUUCUACAGUCCGACGAUCAUUUUCUUGAAUCAAGUGGCGAAUAACAUAGUCCACUGCUUCAUUUAGAAAAUUUCUGCUAGAAAAGCAUGUUGUAUAGUCUUCUGUGCUCAAAACUUUCCAAGAGAGCAGCUCUUUGAGCAACAGAGGAUUGAGCAUCA
B21: 77926472_77926592_980_CDS_ENSG00000167291_ENST00000310924|human|control|control (ssRNA)
RNA: GGGAGUUCUACAGUCCGACGAUCGGAGCGCAUGUGGCCCAGGUCCACGCGGAACACGCCGCAAAUCUGCUCCAGGGCGCACACCCGCUGCGGCUCGUCCCAGCGUGGGGUCUGCAGGAGGCCGUUGCUGUCCGGGAACCGCAGCAACAGAGGAUUGAGCAUCA
B22: chr21:44329077:44329078:+_ENSG00000160194_ENST00000354250|hu_hu|FALSE|FALSE (ssRNA)
RNA: GGGAGUUCUACAGUCCGACGAUCCUCCCGGCCUGAGGAGGGCUGAGGCAUCCUGAAUUUUGAGAGUUCGAGGUUGAGGUCUAAGAAGGUGUACGUGCUGUAGUCAUGAUGCUGCAGGUUCUUGUAGGUAGUGUUGUCAAACGGCAACAGAGGAUUGAGCAUCA

molecular target: T1, UNK ZnF1-3; assay: nsRBNS (natural sequence RNA bind-n-seq); RBNS binding buffer (assumed for nsRBNS): 25 mM Tris pH 7.5, 150 mM KCl, 3 mM MgCl2, 0.01% Triton X-100, 500 ug/ml BSA, 20 U/ml SUPERase-In, 4 C; UNK is unkempt and MSI1 is Musashi-1; names of the RNAs are library labels; protein concentration not given here; high values mean tight binding

| Binder | binding signal [enrichment R] |
| --- | --- |
| B1 | 0.771 |
| B2 | 0.766 |
| B3 | 1.03 |
| B4 | 0.835 |
| B5 | 0.878 |
| B6 | 1.48 |
| B7 | 0.874 |
| B8 | 0.408 |
| B9 | 0.784 |
| B10 | 0.236 |
| B11 | 0.932 |
| B12 | 0.75 |
| B13 | 1.3 |
| B14 | 1.27 |
| B15 | 0.884 |
| B16 | 1.01 |
| B17 | 0.614 |
| B18 | 1.67 |
| B19 | 0.436 |
| B20 | 0.714 |
| B21 | 0.294 |
| B22 | 1.5 |
